Results filed as inconclusive are left out. Unless noted, calls come from the whole dose curve; as a rule, active = well fitted curve in the direction sought with a large enough effect; inconclusive = small, poorly fitted or top-dose-only effect, or another doubt; inactive = no such curve, though single readings can be large; an effect the other way counts as inactive or inconclusive. Some entries of the source have several records that differ or are many. They are shown here; other results are not. The source may hold further records. The records of an entry are repeated measurements (runs, samples, wells, individuals or studies). What stands in brackets tells the records apart. A, B and so on number the origins entry by entry. Where a structure was tested more than once in an assay, its records may differ in their call.
What was measured:
[1] = qHTS for Inhibitors of the Functional Ribonucleoprotein Complex (vRNP) of Lassa (LASV) Arenavirus: Viability assay - alamar blue signal for LASV Primary Screen (AID 1347083; calls by dose curve; tested in HEK293 reporter line; note: nearly all actives have a fitted effect of over 80% in size; note: potency is the fitted concentration of half-maximal effect)
[2] = qHTS of pediatric cancer cell lines to identify multiple opportunities for drug repurposing: Primary screen for SK-N-SH cells (AID 1347098); note: nearly all actives have a fitted effect of over 65% in size; note: potency is the fitted concentration of half-maximal effect
How it was run: (§1)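 Cells (500-1,000/well) rested 5 h, then received compounds for 48 h; metabolically active cells were measured by CellTiter-Glo luminescence. Final concentrations spanned up to 46 µM (MIPE, 11-point) or 0.59 nM-46 µM (NPC, 8-point) in primary screens, 11-point in follow-ups.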

[3] = qHTS of pediatric cancer cell lines to identify multiple opportunities for drug repurposing: Primary screen for BT-12 cells (AID 1347101); note: nearly all actives have a fitted effect of over 25% in size; note: potency is the fitted concentration of half-maximal effect
How it was run: as §1

[4] = qHTS profiling for inhibitors of Plasmodium falciparum proliferation (AID 504749);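 note: 0% = DMSO vehicle and full inhibition = artemisinin control; nearly all actives have a fitted effect of over 60% in size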; conditions: P. falciparum in erythrocytes, SYBR Green DNA, 72 h, parasite line A; at 28.7 µM (top of the series)
How it was run: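 In a 72 h erythrocytic culture (37 C, humidified, 5% CO2) at 2.5% hematocrit and 0.3% starting parasitemia, compounds were tested; SYBR Green I in detergent lysis buffer stained parasite DNA overnight.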

**Q.** For `Nc1ncn([C@H]2C[C@H](O)[C@@H](CO)O2)c(=O)n1`, which Potency [1] is on record?
**A.** The Potency was “inactive [sample A] and active: 6.85 µM [sample B]”.

**Q.** For `O=C(NCC1CCCCN1)c1cc(OCC(F)(F)F)ccc1OCC(F)(F)F` (stereo not given), which Potency [1] is on record?
**A.** The Potency was “active: 30.6 µM [sample A] and inactive [sample B]”.

**Q.** Which Potency [2] does the source give for `CC(C)c1cccc(C(C)C)c1O` here?
**A.** The Potency was “active: 7.64 µM [sample A] and inactive [sample B]”.

**Q.** What about the Potency [3] of the same compound?
**A.** Its Potency is “active: 385 nM [sample A] and inactive [sample B]”.

**Q.** Which activity, negative = inhibition [4] does the source give for `CN1C(=O)NC(=O)C(C)(C2=CCCCC2)C1=O` (stereo not given) here?
**A.** Its activity, negative = inhibition is “inactive: -10.6% [sample A] and inactive: 1.13% [sample B]”.

From PubChem BioAssay (NCATS)
